Measurements reported in paper PMC4336329 (PLoS ONE, 2015).
About 14,000 (4.5%) of roughly 310,000 compounds showed an effect of 50% or more. Effects have a minus sign here. This is one part of the list.

These molecules were tested against human ether-à-go-go-related gene (hERG) potassium channel (human, UniProt Q12809) (assay: primary screen, population patch clamp on CHO cells stably expressing hERG).
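Also: peak tail current of the secondary pulse compared with the same well before compound.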

human ether-à-go-go-related gene (hERG) potassium channel, sequence (Q12809 whole entry, looked up): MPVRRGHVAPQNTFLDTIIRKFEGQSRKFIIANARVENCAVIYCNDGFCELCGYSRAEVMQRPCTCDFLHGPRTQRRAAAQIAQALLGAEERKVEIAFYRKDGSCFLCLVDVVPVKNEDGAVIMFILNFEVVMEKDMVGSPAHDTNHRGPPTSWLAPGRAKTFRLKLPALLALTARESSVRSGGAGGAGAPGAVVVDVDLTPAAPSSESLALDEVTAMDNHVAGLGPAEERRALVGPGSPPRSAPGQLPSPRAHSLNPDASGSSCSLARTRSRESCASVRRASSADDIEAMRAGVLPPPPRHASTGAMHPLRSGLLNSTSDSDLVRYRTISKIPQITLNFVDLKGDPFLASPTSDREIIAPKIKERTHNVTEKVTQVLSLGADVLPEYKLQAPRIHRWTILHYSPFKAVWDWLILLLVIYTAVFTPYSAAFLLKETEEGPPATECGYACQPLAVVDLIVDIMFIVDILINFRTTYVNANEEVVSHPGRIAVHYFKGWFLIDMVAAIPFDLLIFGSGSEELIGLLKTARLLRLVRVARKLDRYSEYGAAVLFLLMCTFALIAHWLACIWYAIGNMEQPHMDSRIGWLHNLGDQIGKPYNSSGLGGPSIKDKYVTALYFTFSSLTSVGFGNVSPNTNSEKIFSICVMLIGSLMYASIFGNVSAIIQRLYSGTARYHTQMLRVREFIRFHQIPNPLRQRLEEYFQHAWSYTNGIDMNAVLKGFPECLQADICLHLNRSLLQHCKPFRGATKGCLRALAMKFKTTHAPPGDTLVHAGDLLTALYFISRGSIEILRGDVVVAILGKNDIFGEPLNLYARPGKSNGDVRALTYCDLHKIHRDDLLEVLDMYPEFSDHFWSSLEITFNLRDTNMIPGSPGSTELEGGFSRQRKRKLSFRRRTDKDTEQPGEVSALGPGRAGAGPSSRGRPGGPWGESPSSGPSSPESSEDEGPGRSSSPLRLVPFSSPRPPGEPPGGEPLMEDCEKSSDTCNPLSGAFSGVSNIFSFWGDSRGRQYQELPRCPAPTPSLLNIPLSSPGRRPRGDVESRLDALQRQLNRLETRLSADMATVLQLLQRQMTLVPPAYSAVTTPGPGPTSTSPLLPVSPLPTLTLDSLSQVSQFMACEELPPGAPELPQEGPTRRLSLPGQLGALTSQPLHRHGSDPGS

Row | Structure (SMILES) | hERG current change (%, negative = inhibition) at 10uM
1 | CCc1ccc(N(CC(=O)NC(C)(C)C)C(=O)CNC(=O)c2cccs2)cc1 | 15.5%
2 | CCN1C2OC3OC4C(OC3OC2N(CC)S1(=O)=O)N(CC)S(=O)(=O)N4CC (centres unmarked) | 9.26%
3 | CCN(CC)C(=O)CSc1nc2sc3c(c2c(=O)n1CCOC)CCC3 | -24.3%
4 | Cc1nccn1CCC(=O)Nc1ccc(Cl)cc1 | -15.1%
5 | COc1cccc(/C=N/N2CCN(c3ccc(Cl)cc3)CC2)c1OC | 17.7%
6 | Cc1[nH]c(=S)sc1Cc1ccc(F)cc1 | 5.62%
7 | COc1ccc(COC(=O)NNC(=O)c2ccc(OC)cc2)cc1 | -20.5%
8 | COC(=O)CCN(c1ccccc1)S(=O)(=O)c1ccc(OC)cc1 | -6.28%
9 | Cc1ccc(N2CC(C(=O)N(C)CC(=O)Nc3ccc(Cl)c(C(F)(F)F)c3)CC2=O)cc1 (centres unmarked) | -20.2%
10 | COc1ccc(NC(=O)CSc2nc3ccccc3c(=O)n2CCNC(C)=O)cc1 | -73.6%
11 | COc1ccc(F)cc1C(=O)C1CCCN(Cc2cn(C)c3ccccc23)C1 (centres unmarked) | -39.5%
12 | COc1ccccc1-c1cc(C(=O)Nc2ccccc2SC)no1 | -5.04%
13 | COCCN(C(=O)CNC(=O)c1ccco1)C(C(=O)NC1CCCC1)c1ccccc1F (centres unmarked) | -32.3%
14 | COc1ccc(OC)c(NC(=O)C23CCC(C)(C(=O)C2)C3(C)C)c1 (centres unmarked) | 14.2%
15 | NC(CS(=O)O)C(=O)O (centres unmarked) | 3.84%
16 | COC(=O)C1(C)NC(c2ccc(O)cc2)C2C(=O)N(c3ccc(C)cc3)C(=O)C21 (centres unmarked) | 15.7%
17 | Cc1[nH]n(CCC#N)c(=O)c1CC(=O)N1CCN(c2ccccc2)CC1 | 2.62%
18 | CC(Oc1ccccc1)C(=O)NNS(=O)(=O)c1ccc([N+](=O)[O-])cc1 (centres unmarked) | 13.4%
19 | C/C(Cl)=C\Cn1c(N2CCCC2)nc2c1c(=O)n(C)c(=O)n2C | 10.9%
20 | CC1CCC(N2CCN(C(=O)c3ccccc3F)CC2)CC1.O=C(O)C(=O)O (centres unmarked) | -2.63%
21 | c1ccc(-c2nc(N3CCOCC3)cc(N3CCOCC3)n2)cc1 | 4.47%
22 | C=CCn1c(=O)c2ccc(C(=O)NCc3ccccc3)cc2n(Cc2ccccc2Cl)c1=O | 4.79%
23 | O=C(Cn1cnnn1)OCC(=O)c1ccc(Cl)s1 | 1.61%

Row | Structure (SMILES) | hERG current change (%, negative = inhibition) at 10uM
24 | CN(CC(=O)O/N=C(\N)c1ccccn1)S(=O)(=O)c1ccc(Br)cc1 | -11.2%
25 | COC(=O)c1ccc2c(C(C)(C)O)c(C(C)(C)O)[nH]c2c1 | 14.3%
26 | CCOC(=O)Cc1csc(NC(=S)NC(=O)c2ccccc2C)n1 | 2.37%
27 | CC(C)N(C(=S)Nc1cccc(C(F)(F)F)c1)C(C)c1ccccn1 (centres unmarked) | -11.5%
28 | Cc1ccc(C)c(N2CCN(C(=O)c3cc4ccccn4n3)CC2)c1 | -39.5%
29 | COC(C[C@@H]1O[C@H]1C(=O)COCc1ccccc1)OC | 12.1%
30 | S=C(Nc1ccc(Cl)cc1Cl)N1CCCC1 | 12.3%
31 | Cc1ccc(C)c(N2CCN(Cc3nnnn3C3CCCCC3)CC2)c1.Cl | -4.45%
32 | Nn1c(SCc2ccc(C(=O)O)cc2)nnc1-c1ccc(Cl)cc1Cl | 18.9%
33 | CC(C)N(C(=O)c1nn(C)c2c1CSc1ccccc1-2)C1CCCCC1 | 10.9%
34 | CCC(C)[C@H](NC(=O)[C@@H]1Cc2c([nH]c3ccccc23)C2c3ccccc3C(=O)N21)C(=O)NCC1CCCO1 (some centres unmarked) | -13.4%
35 | CC(=O)c1cccc(N2C(=O)Nc3ccccc3N2O)c1 | 17%
36 | O=C(CSc1nnc(Cc2ccccc2)o1)NCCN1C(=O)CSC1=O | 10.7%
37 | Clc1cccc(/C=N/Nc2nc(Cl)nc3ccccc23)c1 | -12.7%
38 | Cc1cccc(C)c1NC(=O)CNC(=O)c1c(C)nn(-c2ccccc2)c1Cl | -16.7%
39 | COc1ccc(NC(=O)CSc2nnc(-c3ccccn3)n2N)cc1Cl | -2.27%
40 | COC(=O)[C@H](CCSC)NC(=O)Nc1ccc(OC)c(Cl)c1 | -6.64%
41 | COc1ccc(C)cc1S(=O)(=O)NC(C)c1cnn(-c2ccccn2)c1C (centres unmarked) | 0.876%
42 | O=C(COC(=O)c1cc(S(=O)(=O)N2CCOCC2)ccc1F)Nc1c(Cl)cccc1C(F)(F)F | 5.27%
43 | CCOC(=O)CN1C(=O)/C(=C/c2ccccc2Br)Oc2ccccc21 | 15.8%
44 | CC(=O)Nc1ccc(NC(=O)CNS(=O)(=O)c2ccc(C)cc2)cc1 | -7.94%
45 | CC(=O)N/C(=C\c1ccccc1)C(=O)NC(C)C(=O)O (centres unmarked) | 22.4%
46 | COC(=O)c1ccsc1NC(=O)c1ccccc1 | -3.27%

Row | Structure (SMILES) | hERG current change (%, negative = inhibition) at 10uM
47 | CCN(Cc1ccccc1)S(=O)(=O)c1ccc(C(=O)N(CCCN(C)C)c2nc3c(F)cccc3s2)cc1.Cl | -66.3%
48 | O=C(COC(=O)c1ccccn1)Nc1nc(-c2cccc([N+](=O)[O-])c2)cs1 | -5.17%
49 | COc1ccccc1-n1c(SCC(=O)NC(C)(C)C)nc(O)cc1=O | 2.42%
50 | Nc1nnc(SCc2ccc([N+](=O)[O-])cc2)s1 | -27.3%
51 | COCOc1ccc(/C=C/C(=O)c2c(O)cc(OCOC)cc2OCOC)cc1 | 8.63%
52 | N#C/C(=C(/O)c1ccc(Cl)c([N+](=O)[O-])c1)c1nc2ccccc2[nH]1 | 10.6%
53 | CC(=O)COc1cccc2ccc(/C=C/c3ccc(Br)s3)nc12 | -0.183%
54 | Cc1ccc(OCCCC(=O)Nc2nncs2)cc1 | 8.97%
55 | O=C(COC(=O)[C@H](Cc1ccccc1)NC(=O)c1ccco1)NCc1ccccc1 | -10%
56 | CCCCOC(=O)Nc1ccc(C)c(Cl)c1 | 2.24%
57 | CSc1nc(/C=C2\C=Nc3ccccc32)c(O)n1C | -11.4%
58 | COc1ccc2c(c1)C(=O)C(=O)N2CCS(=O)(=O)c1ccccc1 | 9.33%
59 | Cc1ccc(S(=O)(=O)N2CCCCC2)cc1NC(=O)c1ccc(Cl)nc1 | -21.5%
60 | Cc1nc(-c2ccc(NC(=O)Cc3ccccc3)cc2)cs1 | 21.1%
61 | CCOC(=O)c1[nH]cnc1C(=O)Nc1ccc(F)cc1 | -1.62%
62 | Cc1onc(-c2ccccc2)c1C(=O)OCCOc1ccccc1F | 8.09%
63 | O=C(Nc1cccc2ccccc12)C1CCN(C(=O)NCc2ccccc2)CC1 | 6.5%
64 | O=C(NCCc1ccccc1C(F)(F)F)C1CCC(=O)N(C2CC2)C1 (centres unmarked) | 3.04%
65 | CS(=O)(=O)NCCCNc1ccc(Cl)cc1[N+](=O)[O-] | -25.6%
66 | Clc1ccccc1N1CCN(Cc2ccc(Br)o2)CC1 | 7.14%
67 | CSc1cc(C)[nH]c(=O)n1 | 7.05%
68 | O=C(c1ccco1)N1CCN(c2nc(C(F)(F)F)nc3c2nnn3Cc2ccccc2)CC1 | -15.2%
69 | CCCc1cc(=O)[nH]c(Nc2ccc(N3CCCCC3)cc2)n1 | -38.6%

Row | Structure (SMILES) | hERG current change (%, negative = inhibition) at 10uM
70 | COc1cc(OC)c(NC(=S)Nc2cccc(C(C)=O)c2)cc1Cl | 6.61%
71 | O=C(/C=C/c1ccccc1)NC(=S)Nc1ccccc1C(=O)NC1CCCCC1 | 3.99%
72 | CCOCCCNC(=O)c1ccc(C2SCC(=O)N2Cc2ccccc2)cc1 (centres unmarked) | 4.12%
73 | CCCC(=O)OC1CC(C)N(C(=O)c2ccccc2)c2ccc(C)cc21 (centres unmarked) | -25.5%
74 | O=C(NC(=S)Nc1ccccc1N1CCN(C(=O)c2ccccc2)CC1)c1cccs1 | 9.73%
75 | O=C(NCc1ccccn1)c1cccc(NS(=O)(=O)c2ccc(Br)cc2)c1 | -19.8%
76 | COc1ccccc1CN1C[C@@H]2C[C@@H](c3ccccc3OC)N3CCC[C@@]23C1=O | -14%
77 | CC(Oc1ccccc1)C(=O)NC1C(=O)N2C1SC(C)(C)C2C(=O)[O-].[K+] (centres unmarked) | 35.9%
78 | COc1cccc(-n2nnc3c(=O)n(Cc4ccc(C)cc4)cnc32)c1 | 9.97%
79 | Cc1cc(NC(=O)CCC(=O)N(Cc2ccco2)C2(C(=O)NC3CCCCC3)CCCCC2)no1 | -6.99%
80 | Cc1cc(NC(=O)Cn2nc([N+](=O)[O-])c(Br)c2C)no1 | 8.77%
81 | CCCCOC(=O)C1CN(c2ccccc2)N=C1C(C)=O (centres unmarked) | 12.9%
82 | CCCC1(C(=O)OC)NC(c2ccco2)C2C(=O)N(c3ccc(C)cc3)C(=O)C21 (centres unmarked) | 10.2%
83 | Cc1ccc(Nc2cc(C)nc3ncnn23)c(C)c1 | 15.1%
84 | O=C(Nc1ccccc1)Nc1nnc(-c2cccs2)s1 | 10.1%
85 | Cc1ccccc1C(=O)NC1CCN(Cc2nnnn2C2CCCC2)CC1 | 3.85%
86 | O=C(CN(C(=O)CNC(=O)c1cccs1)c1ccc2c(c1)OCCO2)NC1CCCC1 | -16.9%
87 | CCN(CC)c1ccc(C2NC(=O)NC(C)=C2C(=O)Nc2ccccc2)cc1 (centres unmarked) | 5.48%
88 | Cl.NC(Cc1ccc2nsnc2c1)C(=O)O (centres unmarked) | 5.45%
89 | O=C(C1CCC(=O)N(C2CCCC2)C1)N1CCC(Oc2cccc(F)c2)CC1 (centres unmarked) | -6.61%
